# From publication PMC9911399, “Two distinct binding modes provide the RNA-binding protein RbFox with extraordinary sequence specificity”
# Where a chain is given by its changes, count along the chain named. The list shows a part of the results.
# T1: RBFOX1 RRM (Homo sapiens, UniProt Q9NWB1 109-208)
# T1 sequence: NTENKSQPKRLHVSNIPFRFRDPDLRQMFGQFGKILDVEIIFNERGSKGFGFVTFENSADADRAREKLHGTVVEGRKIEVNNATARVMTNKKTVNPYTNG
# B1: AAUCUAC (DNA:RNA)
# RNA: GGGAGACCGGAAUUCAGAUUGUCCAAUCUACUUAAAUCCCGUCGUAGCCACCA
# DNA 1: CAATCTGAATTCCGGTCTCCC
# DNA 2: TGGTGGCTACGACGGGATT
# B2: GCUGCGG (DNA:RNA)
# RNA: B1 RNA with A25G, A26C, C28G, U29C, A30G, C31G
# DNA 1: CAATCTGAATTCCGGTCTCCC
# DNA 2: TGGTGGCTACGACGGGATT
# B3: ACUAGAA (DNA:RNA)
# RNA: B1 RNA with A26C, C28A, U29G, C31A
# DNA 1: CAATCTGAATTCCGGTCTCCC
# DNA 2: TGGTGGCTACGACGGGATT
# B4: UUAGGUA (DNA:RNA)
# RNA: GGGAGACCGGAAUUCAGAUUGUCCUUAGGUAUUAAAUCCCGUCGUAGCCACCA
# DNA 1: CAATCTGAATTCCGGTCTCCC
# DNA 2: TGGTGGCTACGACGGGATT
# B5: CUGCAGC (DNA:RNA)
# RNA: B1 RNA with A25C, A26U, U27G, U29A, A30G
# DNA 1: CAATCTGAATTCCGGTCTCCC
# DNA 2: TGGTGGCTACGACGGGATT
# B6: UGAGCUC (DNA:RNA)
# RNA: B4 RNA with U26G, G29C, A31C
# DNA 1: CAATCTGAATTCCGGTCTCCC
# DNA 2: TGGTGGCTACGACGGGATT
# B7: CAGACGA (DNA:RNA)
# RNA: B1 RNA with A25C, U27G, C28A, U29C, A30G, C31A
# DNA 1: CAATCTGAATTCCGGTCTCCC
# DNA 2: TGGTGGCTACGACGGGATT
# B8: ACCGAGA (DNA:RNA)
# RNA: B4 RNA with U25A, U26C, A27C, G29A, U30G
# DNA 1: CAATCTGAATTCCGGTCTCCC
# DNA 2: TGGTGGCTACGACGGGATT
# B9: GACAUGU (DNA:RNA)
# RNA: B1 RNA with A25G, U27C, C28A, A30G, C31U
# DNA 1: CAATCTGAATTCCGGTCTCCC
# DNA 2: TGGTGGCTACGACGGGATT
# Molecular target: T1, RBFOX1 RRM
# Experiment: EMSA; HiTS-Eq, 1 nM pool, 10 min; buffer printed only for the single-RNA assays: 10 mM Tris pH 7.5, 150 mM NaCl, 3.4 mM EDTA, 0.001% NP-40, 30 C
# Conditions: tags: His6 N-terminal (pET28a); label: 5' 32P
# Outline: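 Purified RbFox RRM, wild type or mutant, was incubated for 10 min in 50 µL with 1 nM of a 5′-radiolabelled RNA pool carrying 7 randomized nucleotides, whose flanks were annealed to DNA oligonucleotides, over a series of increasing protein concentrations. Unbound RNA was resolved on 8% native PAGE, cut out, reverse-transcribed, barcoded by PCR and sequenced on an Illumina HiSeq 2500. Relative association constants were derived from changes in read counts for each RNA species versus the control reaction and normalised to the cognate motif.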
row,Binder,binding signal
1,B1,0.00361 KA relative to UGCAUGU
2,B2,0.0195 KA relative to UGCAUGU
3,B3,0.00689 KA relative to UGCAUGU
4,B4,0.013 KA relative to UGCAUGU
5,B5,0.0146 KA relative to UGCAUGU
6,B6,0.0137 KA relative to UGCAUGU
7,B7,0.00706 KA relative to UGCAUGU
8,B8,0.00587 KA relative to UGCAUGU
9,B9,0.0153 KA relative to UGCAUGU
